Assay results: the supplement of paper PMC10126150
Sequences with one replicate were seen in a single cluster, so their values are uncertain.

tested on: ATP; assay: switch fluorescence ratio, 500 uM ATP over buffer (Cy3 cluster intensity, sum of 5 cycles each) (fold (ratio)); higher = stronger signal-on switching upon ATP binding; sequences stand for … in TCGTCGGCAGCGTCAGATGTGTATAAGAGACAGTTTTTTTTTTTTTTTTTTTTTTTTT…TC; settings: aptamer strand: ATP DNA aptamer (quencher-CACCTGGGGGAGTATTGCGGAGGAAGG + anchor), 100 nM annealed; ATP concentration: 500 uM; one replicate
Method in brief: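 Cy3-labelled switching-strand clusters on a modified Illumina MiSeq flow-cell were annealed to 100 nM quencher-labelled ATP aptamer, imaged in selection buffer, then imaged after 15 min with 500 uM ATP at 22 °C. Five buffer/ATP cycles ran, with NaOH stripping and re-annealing between them. The fluorescence ratio is summed target-cycle over summed buffer-cycle Cy3 intensity per cluster, averaged per switch-domain sequence. Clusters outside 100-1000 RFU were excluded.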
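Also: ATP exposure 15 min at 22 °C before imaging.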

Row | Sequence | switch fluorescence ratio
1 | CAGTCCAAGT | 0.951
2 | GAGTTGTCGT | 1.01
3 | GCATAAGGA | 0.974
4 | TGATTTTA | 1.06
5 | CGGTTACTTT | 1.05
6 | CCAGTCAGAT | 0.968
7 | GGGAGGAGCG | 0.966
8 | GATCAGGACA | 0.982
9 | GCCATGGATA | 0.98
10 | GACTGTAGGT | 1.04
11 | CGACCTGGTG | 1.45
12 | ATGTTATGCA | 1.01
13 | TTTTGAGCTA | 0.953
14 | TCGGGCCGGA | 2.08
15 | ATGTTGAGAT | 0.99
16 | CTTGACTAAA | 1.01
17 | TACGGGCAGT | 1.04
18 | GACTAAATAT | 1.01
19 | TAAAACCTTT | 1.13
20 | GCCCGATGTA | 0.994
21 | AAACATCCAA | 1.02
22 | AATCTTGG | 0.986
23 | TTTTGCGA | 1.02
24 | TATAGGGACC | 0.978
25 | AGGTCAGACT | 1
26 | CTTTGTTTGT | 1.02

Row | Sequence | switch fluorescence ratio
27 | TCACAATCAA | 1
28 | TGTTCCAGGC | 1.04
29 | TCGGGTAGGC | 1.01
30 | TAGGTATTGG | 0.988
31 | ATCATTCCGG | 1.06
32 | CGGACGGCTG | 0.981
33 | CGATGCAGCC | 1.8
34 | TTCTCACCTA | 1.06
35 | TAAAGTTTCC | 1.39
36 | TAATTGGAAT | 1.25
37 | GGAATGGCGA | 0.995
38 | GCCGTTTGAT | 1.03
39 | GCGGAAATGT | 1.01
40 | TCACAACGGG | 1.06
41 | GTTTATCCTT | 1.04
42 | AAAACTGTGA | 1.04
43 | ATGAAAGGAC | 1.04
44 | GCGAAGAAAC | 0.99
45 | TTTGATAGGC | 0.985
46 | CGCGAAGCCC | 1
47 | GGTCAGGGCG | 1.04
48 | TTTCAGCG | 1.05
49 | AGCAGGTCTG | 0.969
50 | TGCAGCCGGG | 1.57
51 | AGTGTAGGAT | 1.02
52 | AGCACCCAAA | 1.07

Row | Sequence | switch fluorescence ratio
53 | CCACTGCCGG | 1.08
54 | ATTAGGACCA | 1.05
55 | AGGATCGGGC | 0.95
56 | CAAGTAACTT | 1.06
57 | CGTTGCACGG | 1.04
58 | TGGTAGAAGA | 1.05
59 | CAAAAGTACT | 1.04
60 | TTGAA | 1.02
61 | AAATTAGCTA | 1.01
62 | TGTCCCCCTG | 1.61
63 | GCGGGGGGA | 0.996
64 | GCCCCCAAGG | 1
65 | GACGATGGGA | 1.13
66 | GCAGGTTATG | 1
67 | GCATTTATGT | 0.995
68 | GGTAGCCCCG | 1.01
69 | CATCTTTGGC | 0.987
70 | AATCTTACCA | 1
71 | TTATCGGGTC | 1.06
72 | ATTGGTCTGT | 0.952
73 | TTATTGTACG | 1.08
74 | TTCACGGATA | 1
75 | TGCATGTGTG | 1.01
76 | CAGGTTCATT | 1.01
77 | TGGGAGCGCT | 0.87
78 | GACGTTCTG | 1.04

Row | Sequence | switch fluorescence ratio
79 | CTAAGTAGTG | 0.971
80 | CCCTCGGAGG | 1.02
81 | GGAGTCGTTC | 0.994
82 | TGCGATAAGT | 1.02
83 | GGTTCAATGG | 1.06
84 | TCATAGCTAT | 1.1
85 | GTTATCTAGA | 1
86 | CGGCGTCTAG | 0.973
87 | AGTTTTGCGA | 0.936
88 | CTGATGGTAT | 1.03
89 | TAAGGCTTGG | 0.973
90 | GCCCCTTTGG | 1.18
91 | CATTTATATC | 0.996
92 | TGAGAGCGGA | 0.964
93 | AATGTGTGTC | 0.995
94 | AAGTTGGAT | 1
95 | TATGACTAAC | 1.1
96 | CTGTCTTGGC | 0.949
97 | CTAGTCTGTA | 1.01
98 | GGGCTTGTTA | 0.991
99 | TGAGCAACTC | 1.49
100 | CCTCATGTT | 1.06
101 | GCATTTGTAT | 1.04
